Measurements from the supplement of paper PMC12423691.
Some of the results follow. Binding of human transcription factors and regulators to the viral nucleoprotein by AlphaScreen, crude cell-free proteins, amounts not normalised, one pass. Fold of the Venus control; higher = more signal. No active / inactive call. Single-pass screen; sequences are the whole Swiss-Prot entries looked up by name.

B1: LGALS9, O00182 (protein)
chain: MAFSGSQAPYLSPAVPFSGTIQGGLQDGLQITVNGTVLSSSGTRFAVNFQTGFSGNDIAFHFNPRFEDGGYVVCNTRQNGSWGPEERKTHMPFQKGMPFDLCFLVQSSDFKVMVNGILFVQYFHRVPFHRVDTISVNGSVQLSYISFQNPRTVPVQPAFSTVPFSQPVCFPPRPRGRRQKPPGVWPANPAPITQTVIHTVQSAPGQMFSTPAIPPMMYPHPAYPMPFITTILGGLYPSKSILLSGTVLPSAQRFHINLCSGNHIAFHLNPRFDENAVVRNTQIDNSWGSEERSLPRKMPFVRGQSFSVWILCEAHCLKVAVDGQHLFEYYHRLRNLPTINRLEVGGDIQLTHVQT
B2: PAX4, O43316 (protein)
chain: MHQDGISSMNQLGGLFVNGRPLPLDTRQQIVRLAVSGMRPCDISRILKVSNGCVSKILGRYYRTGVLEPKGIGGSKPRLATPPVVARIAQLKGECPALFAWEIQRQLCAEGLCTQDKTPSVSSINRVLRALQEDQGLPCTRLRSPAVLAPAVLTPHSGSETPRGTHPGTGHRNRTIFSPSQAEALEKEFQRGQYPDSVARGKLATATSLPEDTVRVWFSNRRAKWRRQEKLKWEMQLPGASQGLTVPRVAPGIISAQQSPGSVPTAALPALEPLGPSCYQLCWATAPERCLSDTPPKACLKPCWDCGSFLLPVIAPSCVDVAWPCLDASLAHHLIGGAGKATPTHFSHWP
B3: CIB1, Q99828 (protein)
chain: MGGSGSRLSKELLAEYQDLTFLTKQEILLAHRRFCELLPQEQRSVESSLRAQVPFEQILSLPELKANPFKERICRVFSTSPAKDSLSFEDFLDLLSVFSDTATPDIKSHYAFRIFDFDDDGTLNREDLSRLVNCLTGEGEDTRLSASEMKQLIDNILEESDIDRDGTINLSEFQHVISRSPDFASSFKIVL
B4: TRIM22, Q8IYM9 (protein)
chain: MDFSVKVDIEKEVTCPICLELLTEPLSLDCGHSFCQACITAKIKESVIISRGESSCPVCQTRFQPGNLRPNRHLANIVERVKEVKMSPQEGQKRDVCEHHGKKLQIFCKEDGKVICWVCELSQEHQGHQTFRINEVVKECQEKLQVALQRLIKEDQEAEKLEDDIRQERTAWKNYIQIERQKILKGFNEMRVILDNEEQRELQKLEEGEVNVLDNLAAATDQLVQQRQDASTLISDLQRRLRGSSVEMLQDVIDVMKRSESWTLKKPKSVSKKLKSVFRVPDLSGMLQVLKELTDVQYYWVDVMLNPGSATSNVAISVDQRQVKTVRTCTFKNSNPCDFSAFGVFGCQYFSSGKYYWEVDVSGKIAWILGVHSKISSLNKRKSSGFAFDPSVNYSKVYSRYRPQYGYWVIGLQNTCEYNAFEDSSSSDPKVLTLFMAVPPCRIGVFLDYEAGIVSFFNVTNHGALIYKFSGCRFSRPAYPYFNPWNCLVPMTVCPPSS
B5: TRAF2, Q12933 (protein)
chain: MAAASVTPPGSLELLQPGFSKTLLGTKLEAKYLCSACRNVLRRPFQAQCGHRYCSFCLASILSSGPQNCAACVHEGIYEEGISILESSSAFPDNAARREVESLPAVCPSDGCTWKGTLKEYESCHEGRCPLMLTECPACKGLVRLGEKERHLEHECPERSLSCRHCRAPCCGADVKAHHEVCPKFPLTCDGCGKKKIPREKFQDHVKTCGKCRVPCRFHAIGCLETVEGEKQQEHEVQWLREHLAMLLSSVLEAKPLLGDQSHAGSELLQRCESLEKKTATFENIVCVLNREVERVAMTAEACSRQHRLDQDKIEALSSKVQQLERSIGLKDLAMADLEQKVLEMEASTYDGVFIWKISDFARKRQEAVAGRIPAIFSPAFYTSRYGYKMCLRIYLNGDGTGRGTHLSLFFVVMKGPNDALLRWPFNQKVTLMLLDQNNREHVIDAFRPDVTSSSFQRPVNDMNIASGCPLFCPVSKMEAKNSYVRDDAIFIKAIVDLTGL
B6: CSRNP1, Q96S65 (protein)
chain: MTGLLKRKFDQLDEDNSSVSSSSSSSGCQSRSCSPSSSVSRAWDSEEEGPWDQMPLPDRDFCGPRSFTPLSILKRARRERPGRVAFDGITVFYFPRCQGFTSVPSRGGCTLGMALRHSACRRFSLAEFAQEQARARHEKLRQRLKEEKLEMLQWKLSAAGVPQAEAGLPPVVDAIDDASVEEDLAVAVAGGRLEEVSFLQPYPARRRRALLRASGVRRIDREEKRELQALRQSREDCGCHCDRICDPETCSCSLAGIKCQMDHTAFPCGCCREGCENPMGRVEFNQARVQTHFIHTLTRLQLEQEAESFRELEAPAQGSPPSPGEEALVPTFPLAKPPMNNELGDNSCSSDMTDSSTASSSASGTSEAPDCPTHPGLPGPGFQPGVDDDSLARILSFSDSDFGGEEEEEEEGSVGNLDNLSCFHPADIFGTSDPGGLASWTHSYSGCSFTSGVLDENANLDASCFLNGGLEGSREGSLPGTSVPPSMDAGRSSSVDLSLSSCDSFELLQALPDYSLGPHYTSQKVSDSLDNIEAPHFPLPGLSPPGDASSCFLESLMGFSEPAAEALDPFIDSQFEDTVPASLMEPVPV
B7: ZNF41, P51814 (protein)
chain: MAANGDSPPWSPALAAEGRGSSCEVRRERTPEARIHSVKRYPDLSPGPKGRSSADHAALNSIVSLQASVSFEDVTVDFSKEEWQHLDPAQRRLYWDVTLENYSHLLSVGYQIPKSEAAFKLEQGEGPWMLEGEAPHQSCSGEAIGKMQQQGIPGGIFFHCERFDQPIGEDSLCSILEELWQDNDQLEQRQENQNNLLSHVKVLIKERGYEHKNIEKIIHVTTKLVPSIKRLHNCDTILKHTLNSHNHNRNSATKNLGKIFGNGNNFPHSPSSTKNENAKTGANSCEHDHYEKHLSHKQAPTHHQKIHPEEKLYVCTECVMGFTQKSHLFEHQRIHAGEKSRECDKSNKVFPQKPQVDVHPSVYTGEKPYLCTQCGKVFTLKSNLITHQKIHTGQKPYKCSECGKAFFQRSDLFRHLRIHTGEKPYECSECGKGFSQNSDLSIHQKTHTGEKHYECNECGKAFTRKSALRMHQRIHTGEKPYVCADCGKAFIQKSHFNTHQRIHTGEKPYECSDCGKSFTKKSQLHVHQRIHTGEKPYICTECGKVFTHRTNLTTHQKTHTGEKPYMCAECGKAFTDQSNLIKHQKTHTGEKPYKCNGCGKAFIWKSRLKIHQKSHIGERHYECKDCGKAFIQKSTLSVHQRIHTGEKPYVCPECGKAFIQKSHFIAHHRIHTGEKPYECSDCGKCFTKKSQLRVHQKIHTGEKPNICAECGKAFTDRSNLITHQKIHTREKPYECGDCGKTFTWKSRLNIHQKSHTGERHYECSKCGKAFIQKATLSMHQIIHTGKKPYACTECQKAFTDRSNLIKHQKMHSGEKRYKASD
B8: MYF6, P23409 (protein)
chain: MMMDLFETGSYFFYLDGENVTLQPLEVAEGSPLYPGSDGTLSPCQDQMPPEAGSDSSGEEHVLAPPGLQPPHCPGQCLIWACKTCKRKSAPTDRRKAATLRERRRLKKINEAFEALKRRTVANPNQRLPKVEILRSAISYIERLQDLLHRLDQQEKMQELGVDPFSYRPKQENLEGADFLRTCSSQWPSVSDHSRGLVITAKEGGASIDSSASSSLRCLSSIVDSISSEERKLPCVEEVVEK
B9: FOXL1, Q12952 (protein)
chain: MSHLFDPRLPALAASPMLYLYGPERPGLPLAFAPAAALAASGRAETPQKPPYSYIALIAMAIQDAPEQRVTLNGIYQFIMDRFPFYHDNRQGWQNSIRHNLSLNDCFVKVPREKGRPGKGSYWTLDPRCLDMFENGNYRRRKRKPKPGPGAPEAKRPRAETHQRSAEAQPEAGSGAGGSGPAISRLQAAPAGPSPLLDGPSPPAPLHWPGTASPNEDAGDAAQGAAAVAVGQAARTGDGPGSPLRPASRSSPKSSDKSKSFSIDSILAGKQGQKPPSGDELLGGAKPGPGGRLGASLLAASSSLRPPFNASLMLDPHVQGGFYQLGIPFLSYFPLQVPDTVLHFQ
B10: PPARG, P37231 (protein)
chain: MGETLGDSPIDPESDSFTDTLSANISQEMTMVDTEMPFWPTNFGISSVDLSVMEDHSHSFDIKPFTTVDFSSISTPHYEDIPFTRTDPVVADYKYDLKLQEYQSAIKVEPASPPYYSEKTQLYNKPHEEPSNSLMAIECRVCGDKASGFHYGVHACEGCKGFFRRTIRLKLIYDRCDLNCRIHKKSRNKCQYCRFQKCLAVGMSHNAIRFGRMPQAEKEKLLAEISSDIDQLNPESADLRALAKHLYDSYIKSFPLTKAKARAILTGKTTDKSPFVIYDMNSLMMGEDKIKFKHITPLQEQSKEVAIRIFQGCQFRSVEAVQEITEYAKSIPGFVNLDLNDQVTLLKYGVHEIIYTMLASLMNKDGVLISEGQGFMTREFLKSLRKPFGDFMEPKFEFAVKFNALELDDSDLAIFIAVIILSGDRPGLLNVKPIEDIQDNLLQALELQLKLNHPESSQLFAKLLQKMTDLRQIVTEHVQLLQVIKKTETDMSLHPLLQEIYKDLY
B11: TULP4, Q9NRJ4 (protein)
chain: MYAAVEHGPVLCSDSNILCLSWKGRVPKSEKEKPVCRRRYYEEGWLATGNGRGVVGVTFTSSHCRRDRSTPQRINFNLRGHNSEVVLVRWNEPYQKLATCDADGGIFVWIQYEGRWSVELVNDRGAQVSDFTWSHDGTQALISYRDGFVLVGSVSGQRHWSSEINLESQITCGIWTPDDQQVLFGTADGQVIVMDCHGRMLAHVLLHESDGVLGMSWNYPIFLVEDSSESDTDSDDYAPPQDGPAAYPIPVQNIKPLLTVSFTSGDISLMNNYDDLSPTVIRSGLKEVVAQWCTQGDLLAVAGMERQTQLGELPNGPLLKSAMVKFYNVRGEHIFTLDTLVQRPIISICWGHRDSRLLMASGPALYVVRVEHRVSSLQLLCQQAIASTLREDKDVSKLTLPPRLCSYLSTAFIPTIKPPIPDPNNMRDFVSYPSAGNERLHCTMKRTEDDPEVGGPCYTLYLEYLGGLVPILKGRRISKLRPEFVIMDPRTDSKPDEIYGNSLISTVIDSCNCSDSSDIELSDDWAAKKSPKISRASKSPKLPRISIEARKSPKLPRAAQELSRSPRLPLRKPSVGSPSLTRREFPFEDITQHNYLAQVTSNIWGTKFKIVGLAAFLPTNLGAVIYKTSLLHLQPRQMTIYLPEVRKISMDYINLPVFNPNVFSEDEDDLPVTGASGVPENSPPCTVNIPIAPIHSSAQAMSPTQSIGLVQSLLANQNVQLDVLTNQTTAVGTAEHAGDSATQYPVSNRYSNPGQVIFGSVEMGRIIQNPPPLSLPPPPQGPMQLSTVGHGDRDHEHLQKSAKALRPTPQLAAEGDAVVFSAPQEVQVTKINPPPPYPGTIPAAPTTAAPPPPLPPPQPPVDVCLKKGDFSLYPTSVHYQTPLGYERITTFDSSGNVEEVCRPRTRMLCSQNTYTLPGPGSSATLRLTATEKKVPQPCSSATLNRLTVPRYSIPTGDPPPYPEIASQLAQGRGAAQRSDNSLIHATLRRNNREATLKMAQLADSPRAPLQPLAKSKGGPGGVVTQLPARPPPALYTCSQCSGTGPSSQPGASLAHTASASPLASQSSYSLLSPPDSARDRTDYVNSAFTEDEALSQHCQLEKPLRHPPLPEAAVTLKRPPPYQWDPMLGEDVWVPQERTAQTSGPNPLKLSSLMLSQGQHLDVSRLPFISPKSPASPTATFQTGYGMGVPYPGSYNNPPLPGVQAPCSPKDALSPTQFAQQEPAVVLQPLYPPSLSYCTLPPMYPGSSTCSSLQLPPVALHPWSSYSACPPMQNPQGTLPPKPHLVVEKPLVSPPPADLQSHLGTEVMVETADNFQEVLSLTESPVPQRTEKFGKKNRKRLDSRAEEGSVQAITEGKVKKEARTLSDFNSLISSPHLGREKKKVKSQKDQLKSKKLNKTNEFQDSSESEPELFISGDELMNQSQGSRKGWKSKRSPRAAGELEEAKCRRASEKEDGRLGSQGFVYVMANKQPLWNEATQVYQLDFGGRVTQESAKNFQIELEGRQVMQFGRIDGSAYILDFQYPFSAVQAFAVALANVTQRLK

Target: nucleoprotein N of Crimean-Congo hemorrhagic fever virus
Test: AlphaScreen luminescence signal relative to Venus negative control (fold); higher = stronger binding to CCHFV N
Description: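 AlphaScreen binding of cell-free made, FLAG-GST-tagged human transcription factors and regulators (crude translation products) to biotinylated N protein; signal as fold of the FLAG-GST-Venus control. One pass.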

Question: With B1 as the binder, how does the AlphaScreen luminescence signal read?
Answer: The AlphaScreen luminescence signal was 1.58.

Question: For B2, which AlphaScreen luminescence signal is on record?
Answer: The AlphaScreen luminescence signal was 2.56.

Question: For B3, which AlphaScreen luminescence signal is on record?
Answer: The AlphaScreen luminescence signal was 1.21.

Question: Which AlphaScreen luminescence signal does the source give for B4 here?
Answer: The AlphaScreen luminescence signal was 2.09.

Question: B5 was tested. Which AlphaScreen luminescence signal did it give?
Answer: Its AlphaScreen luminescence signal is 1.67.

Question: How did the AlphaScreen luminescence signal turn out when B6 was run?
Answer: Its AlphaScreen luminescence signal is 4.84.

Question: B7 was tested. Which AlphaScreen luminescence signal did it give?
Answer: The AlphaScreen luminescence signal was 3.07.

Question: Which AlphaScreen luminescence signal does the source give for B8 here?
Answer: Its AlphaScreen luminescence signal is 2.28.

Question: How did the AlphaScreen luminescence signal turn out when B9 was run?
Answer: The AlphaScreen luminescence signal was 1.49.

Question: How did the AlphaScreen luminescence signal turn out when B10 was run?
Answer: The AlphaScreen luminescence signal was 1.95.

Question: How did the AlphaScreen luminescence signal turn out when B11 was run?
Answer: The AlphaScreen luminescence signal was 2.93.
